# Source: PubChem BioAssay AID1240 (Sanford-Burnham Center for Chemical Genomics, 2008)
# Out of some 50,000 compounds screened, about 800 (1.6%) showed an effect of 50% or more. The list shows a part of the results.
# Molecular target: Bcl-2-like protein 10 (Homo sapiens) (UniProt Q9HD36)
# Assay: Phenotype converters, Bcl-B/TR3 peptide binding displacement, primary biochemical FP (AID 1240);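 further: 0% = Bcl-B with tracer peptide and DMSO and 100% = tracer peptide lacking Bcl-B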
# Settings: GST-Bcl-B / FITC-TR3 peptide fluorescence polarization; stronger effect = higher value; compound at 3.75 mg/L
# Sequence of UniProt Q9HD36 (Q9HD36 whole entry, looked up): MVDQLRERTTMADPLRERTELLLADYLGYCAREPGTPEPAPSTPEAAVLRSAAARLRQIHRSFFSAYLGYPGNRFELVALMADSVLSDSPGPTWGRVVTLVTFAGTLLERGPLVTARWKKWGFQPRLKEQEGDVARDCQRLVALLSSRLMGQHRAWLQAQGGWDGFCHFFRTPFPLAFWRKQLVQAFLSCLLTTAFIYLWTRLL
row,Compound,displacement
1,Cc1ccc(F)c(N/C=C/C(=O)c2ccc(Br)cc2)c1,7%
2,COc1cccc(C2NC(=S)NC(C)=C2C(=O)Nc2ccccc2OC)c1 (configuration not stated),-4%
3,CCOc1ccc(C=NN2CCN(c3ccccn3)CC2)cc1,-12.7%
4,COc1ccc(C(=O)N2CCN(c3ccc(F)cc3)CC2)cc1[N+](=O)[O-],12.4%
5,O=C1CSC(=O)N1CCN1C(=O)S/C(=C\c2ccc(Br)cc2)C1=O,-8.2%
6,Cc1cc(C)n(S(=O)(=O)c2ccc3c(c2)C(=O)c2cc(S(=O)(=O)n4nc(C)cc4C)ccc2-3)n1,18.4%
7,CCOc1ccccc1CN(CCc1ccc2c(c1)OCO2)Cc1ccc(OC)c(OC)c1OC,-1%
8,CCOc1ccc(NC(=O)CC2SC(N)=NC2=O)cc1 (configuration not stated),0.1%
9,O=S(=O)(NCCSc1nc2ccccc2[nH]1)c1ccccc1,-7.6%
10,CC1(C)CC(NC(=O)c2ccco2)CC(C)(CNC(=O)c2ccco2)C1 (configuration not stated),36.9%
11,COc1ccc(N2C(=O)NC(=O)/C(=C/c3cccc(OCCOc4ccccc4)c3)C2=O)cc1,11.4%
12,O=C(O)CCC(=O)Nc1ccc(Cc2ccc(NC(=O)CCC(=O)O)c(O)c2)cc1O,-1.9%
13,CCOC(=O)CNC(=O)c1ccc([N+](=O)[O-])cc1,10.9%
14,O=C(Nc1ccccc1C(=O)NCc1ccco1)c1ccccc1Br,-4.2%
15,Cc1cc(N2C(=O)NC(=O)/C(=C\c3ccc(N4CCCCC4)o3)C2=O)ccc1Br,55.5%
16,Cc1ccccc1NS(=O)(=O)c1ccc(NC(=O)c2ccc([N+](=O)[O-])cc2)cc1,-1.3%
17,CCOc1ccc2ccc(OCC)c(/C=C3/NC(=S)NC3=O)c2c1,4.4%
18,CSc1nc2c(c(=O)n1C1CCOC(C)(C)C1)C1(CCCCC1)Cc1ccccc1-2 (configuration not stated),-1.8%
19,Cn1ccnc1Sc1nc(Nc2ccccc2)nc(Nc2ccccc2)n1,-6.7%
20,Cc1nc2c(sc3nc(C)c(C)c(C)c32)c(=O)o1,0%
21,CNC(=O)CN(c1ccc(OC)cc1)S(=O)(=O)c1ccc(OC)c(OC)c1,-11.2%
22,O=C(/C=C\c1ccccc1)NC(=S)Nc1ccc([N+](=O)[O-])cc1O,-4.6%
23,Cc1ccc(C(=O)Nc2ccccc2C(=O)NC(Cc2c[nH]c3ccccc23)C(=O)O)cc1 (configuration not stated),7.1%
24,CC1CCc2c(sc(NC(=O)c3cccnc3)c2C(=O)Nc2ccccc2)C1 (configuration not stated),37.1%
25,CCc1ccc(NC2=C(Cl)C(=O)N(c3ccccc3C)C2=O)cc1,0.6%
26,O=c1cc(-c2ccccc2)nc2cc(-c3cccc(F)c3)[nH]n12,15.9%

row,Compound,displacement
1,CCOc1cccc(C(=O)Nc2cc(-c3nc4cc(C)cc(C)c4o3)ccc2C)c1,9.5%
2,O=C(CCN1C(=O)c2cccc3cccc(c23)C1=O)NCc1ccc2c(c1)OCO2,-23.3%
3,Cc1cc(=O)[nH]c(SCC(=O)N2CCCc3ccccc32)n1,-11%
4,Cc1cccc(-c2nc3cc(NC(=O)COc4ccc([N+](=O)[O-])cc4)ccc3o2)c1,0.3%
5,O=C(c1ccc(-c2ccc(Cl)cc2)o1)N1CCN(c2ccc([N+](=O)[O-])cc2Cl)CC1,5.2%
6,O=C(/C=C/c1ccco1)N1CCC(CN2C(=O)c3cccc4cccc(c34)C2=O)CC1,27.9%
7,O=C(Nc1cccc(Cl)c1)c1cc([N+](=O)[O-])ccc1Cl,-7.9%
8,O=C(Nc1ccc(Cl)cc1)Nc1nnc(-c2cccc(Br)c2)s1,20.4%
9,COc1cccc(C(=O)N2N=C(c3ccc(F)cc3)CC2(O)C(F)(F)F)c1 (configuration not stated),-11%
10,COc1ccc(NC(=O)CN(c2cccc(C(F)(F)F)c2)S(C)(=O)=O)cc1OC,2.4%
11,COC(=O)c1ccccc1NC(=S)NC(=O)/C=C/c1ccccc1,10.2%
12,O=C1C(=O)N(C(c2ccccc2)c2ccccc2)c2ccccc21,-4%
13,Cc1ccoc1C(=O)Nc1ccccc1C(=O)O,10.5%
14,O=C1c2cccc3cccc(c23)C(=O)N1CCN1CCN(S(=O)(=O)c2ccc(F)cc2)CC1,-13.6%
15,COc1ccc([N+](=O)[O-])cc1-c1ccc(/C=C2\C(=O)NC(=O)N(c3cc(C)cc(C)c3)C2=O)o1,92.6%
16,Cc1ccccc1OCC(=O)Nc1c[nH]c(=O)[nH]c1=O,-31.4%
17,Cc1ccc2[nH]c3nc(N=Nc4c(O)[nH]c5c(Br)cc(Br)cc45)nnc3c2c1,9.3%
18,CCCCOC(=O)CCCN1C(=O)S/C(=C\c2ccccc2)C1=S,-9.5%
19,Cc1ccc(C(C)C)c(OCCOc2cccc(/C=C3/SC(=S)N(C)C3=O)c2)c1,9.8%
20,CC(C)Oc1ccccc1NC(=O)CSCC(=O)Nc1ccc2ccccc2c1,-14.6%
21,CC(C)OC(=O)c1ccc(NC(=O)COc2cccc(Cl)c2)cc1,-17%
22,CC(C)(Oc1ccc(CCNC(=O)c2ccc(-c3ccccc3)o2)cc1)C(=O)O,-1.4%
23,CS(=O)(=O)N(CC(=O)Nc1ccc(Oc2ccccc2)cc1)c1ccc(Cl)cc1,17.8%
24,CCOC(=O)C1=NNC(C(=O)c2ccccc2)C1c1ccccc1 (configuration not stated),26.7%
25,O=C(Nc1ccc(Cc2ccncc2)cc1)c1cccc(C(=O)Nc2ccc(Cc3ccncc3)cc2)c1,13.5%
26,CC(C)c1ccc(/C=C/C(=O)Nc2ccccn2)cc1,-4.2%
